Test results reported in the supplement of paper PMC4967469.
IC50 is the fitted dose that halves viability relative to control wells, and lower means more sensitive; fits outside the tested doses are given as limits. AUC sums up the same curve from the lowest dose to the 256-fold higher top dose; the more sensitive the line, the further below 1. Any top dose called inferred is not printed in the source and was worked back from the curve model. For part of these data: An entry number marks a drug with two screens in the source, which often give different values.

Columns and labels:
Test in all cases: Viability of human cancer cell lines after 72 h of drug (GDSC screen)
HG-5-113-01 = compound: CNC(=O)c1ccc(Nc2cc(Nc3ccccc3S(=O)(=O)C(C)C)c3cc[nH]c3n2)nc1 [HG-5-113-01]; conditions: top dose 10 µM; top dose inferred
Method: (§1)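 Human cancer cell lines in 384-well plates, medium with 10% serum, drug for 72 h over a 256-fold dose range (nine 2-fold or five 4-fold steps up to the top dose). Adherent lines were fixed and stained with the nucleic acid dye Syto60, suspension lines read with resazurin; signal relative to control wells, capped at 0 and 100%. One two-parameter sigmoid per drug and line, fitted in a mixed model over all curves with the slope shared within a line.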

VX-702 = compound: NC(=O)c1ccc(N(C(N)=O)c2c(F)cccc2F)nc1-c1ccc(F)cc1F [VX-702]; conditions: top dose 2 µM; top dose inferred
Method: as §1

Wee1 inhibitor 681640 = compound: O=C1NC(=O)c2c1c(-c1ccccc1Cl)cc1[nH]c3ccc(O)cc3c21 [Wee1 inhibitor 681640]; conditions: top dose 2 µM; top dose inferred
Method: as §1

Shikonin = compound: CC(C)=CC[C@@H](O)C1=CC(=O)c2c(O)ccc(O)c2C1=O [Shikonin]; conditions: top dose 16 µM; top dose inferred
Method: as §1

Olaparib = compound: O=C(c1cc(Cc2n[nH]c(=O)c3ccccc23)ccc1F)N1CCN(C(=O)C2CC2)CC1 [Olaparib]
Method: as §1

BIRB 0796 = compound: Cc1ccc(-n2nc(C(C)(C)C)cc2NC(=O)Nc2ccc(OCCN3CCOCC3)c3ccccc23)cc1 [BIRB 0796]; conditions: top dose 10 µM; top dose inferred
Method: as §1

SB-525334 = compound: Cc1cccc(-c2[nH]c(C(C)(C)C)nc2-c2ccc3nccnc3c2)n1 [SB-525334]; conditions: top dose 20 µM; top dose inferred
Method: as §1

BMS-536924 = compound: Cc1cc(N2CCOCC2)cc2[nH]c(-c3c(NC[C@@H](O)c4cccc(Cl)c4)cc[nH]c3=O)nc12 [BMS-536924]; conditions: top dose 4 µM; screen: GDSC drug entry 1091; top dose inferred
Method: as §1

[1] = top dose 5 µM, screen: GDSC drug entry 1017, top dose inferred
[2] = top dose 10 µM, screen: GDSC drug entry 1495

Cell Line	AUC (HG-5-113-01)	IC50 (HG-5-113-01) [µM]	AUC (VX-702)	IC50 (VX-702) [µM]	AUC (Wee1 inhibitor 681640)	IC50 (Wee1 inhibitor 681640) [µM]	AUC (Shikonin)	IC50 (Shikonin) [µM]	AUC (Olaparib; [1])	IC50 (Olaparib; [1]) [µM]	AUC (Olaparib; [2])	IC50 (Olaparib; [2]) [µM]	AUC (BIRB 0796)	IC50 (BIRB 0796) [µM]	AUC (SB-525334)	IC50 (SB-525334) [µM]	AUC (BMS-536924)	IC50 (BMS-536924) [µM]
M059J (glioma, adherent)	0.817	6.19	0.983	> 2	0.969	> 2	0.288	0.238	0.959	> 5	0.911	> 10	0.985	> 10	0.931	> 20	0.961	> 4
MES-SA (uterus, adherent)	0.555	0.864	0.992	> 2	0.988	> 2	0.316	0.335	0.984	> 5	0.967	> 10	0.926	> 10	0.992	> 20	0.977	> 4
MFE-280 (endometrium, adherent)	0.641	1.7	0.982	> 2	0.982	> 2	0.672	3.45	0.982	> 5	0.968	> 10	0.943	> 10	0.857	> 20	0.869	> 4
MFE-296 (endometrium, adherent)	0.686	2.17	0.985	> 2	0.96	> 2	0.406	0.541	0.971	> 5	0.895	> 10	0.974	> 10	0.976	> 20	0.894	> 4
MOG-G-CCM (glioma, adherent)	0.859	> 10	0.983	> 2	0.865	> 2	0.425	0.602	0.945	> 5	0.938	> 10	0.946	> 10	0.945	> 20	0.967	> 4
NCI-H28 (mesothelioma, adherent)	0.691	2.56	0.957	> 2	0.94	> 2	0.541	1.34	0.967	> 5	0.904	> 10	0.902	> 10	0.953	> 20	0.88	> 4
NCI-H630 (large intestine, adherent)	0.832	7.03	0.984	> 2	0.878	> 2	0.554	1.42	0.966	> 5	0.987	> 10	0.959	> 10	0.953	> 20	0.811	2.33
NCI-H650 (lung adenocarcinoma, adherent)	0.778	4.48	0.971	> 2	0.964	> 2	0.5	1	0.969	> 5	0.976	> 10	0.984	> 10	0.966	> 20	0.953	> 4
NCI-H810 (large cell lung carcinoma, adherent)	0.729	2.71	0.969	> 2	0.942	> 2	0.414	0.589	0.984	> 5	0.899	> 10	0.986	> 10	0.988	> 20	0.987	> 4
NCI-H1437 (lung adenocarcinoma, adherent)	0.746	3.29	0.985	> 2	0.975	> 2	0.61	2.03	0.982	> 5	0.981	> 10	0.925	> 10	0.954	> 20	0.767	1.55
NCI-H1563 (lung adenocarcinoma, adherent)	0.794	5.58	0.985	> 2	0.985	> 2	0.407	0.53	0.985	> 5	0.983	> 10	0.916	> 10	0.861	> 20	0.905	> 4
NCI-H1623 (lung adenocarcinoma, adherent)	0.896	> 10	0.982	> 2	0.969	> 2	0.692	3.92	0.985	> 5	0.891	> 10	0.983	> 10	0.977	> 20	0.953	> 4
NCI-H1651 (lung adenocarcinoma, adherent)	0.811	5.82	0.987	> 2	0.948	> 2	0.818	9.95	0.914	> 5	0.792	4.94	0.983	> 10	0.986	> 20	0.979	> 4
NCI-H1755 (lung adenocarcinoma, adherent)	0.717	2.88	0.984	> 2	0.939	> 2	0.858	> 16	0.984	> 5	0.98	> 10	0.968	> 10	0.495	1.21	0.814	2.61
NCI-H1781 (lung adenocarcinoma, adherent)	0.813	5.41	0.989	> 2	0.989	> 2	0.59	1.77	0.989	> 5	0.954	> 10	0.981	> 10	0.988	> 20	0.963	> 4
